The list shows a part of the results.
Experiments:
Experiment in all cases: glycan array binding signal (z-score within array); higher = stronger binding
Conditions in all cases: glycan notation: IUPAC condensed, linker removed
[1] = target: Fuc(a1-2)[Gal(a1-3)]Gal(b1-4)GlcNAc(b1-2)Man(a1-3)[Fuc(a1-2)[Gal(a1-3)]Gal(b1-4)GlcNAc(b1-2)Man(a1-6)]Man(b1-4)GlcNAc(b1-4)[Fuc(a1-6)]GlcNAc
Summary of the method: (§1)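 The Consortium for Functional Glycomics database supplied 3228 glycan arrays, of which those lacking an available protein sequence were dropped. The binding signal, a within-array Z-score, was averaged across arrays of the same protein sequence and across linkers. Negative scores can be read as non-binding.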

[2] = target: Fuc(a1-2)[Gal(a1-3)]Gal(b1-4)GlcNAc(b1-3)GalNAc
Summary of the method: as §1

[3] = target: Fuc(a1-2)[Gal(a1-3)]Gal(b1-4)GlcNAc(b1-3)[Fuc(a1-2)[Gal(a1-3)]Gal(b1-4)GlcNAc(b1-6)]GalNAc
Summary of the method: as §1

[4] = target: Fuc(a1-2)[Gal(a1-3)]Gal(b1-4)GlcNAc(b1-6)GalNAc
Summary of the method: as §1

[5] = target: Fuc(a1-2)[Gal(a1-3)]Gal(b1-4)[Fuc(a1-3)]Glc
Summary of the method: as §1

[6] = target: Fuc(a1-2)[Gal(a1-3)]Gal(b1-4)[Fuc(a1-3)]GlcNAc
Summary of the method: as §1

[7] = target: Fuc(a1-2)[Gal(a1-3)]Gal(b1-4)[Fuc(a1-3)]GlcNAc(b1-3)GalNAc
Summary of the method: as §1

[8] = target: Fuc(a1-2)[Gal(a1-4)]Gal(b1-4)GlcNAc
Summary of the method: as §1

[9] = target: Fuc(a1-2)[GalNAc(a1-3)]Gal
Summary of the method: as §1

[10] = target: Fuc(a1-2)[GalNAc(a1-3)]Gal(b1-3)GalNAc(a1-3)[Fuc(a1-2)]Gal(b1-4)GlcNAc
Summary of the method: as §1

[11] = target: Fuc(a1-2)[GalNAc(a1-3)]Gal(b1-3)GalNAc(b1-3)Gal(a1-4)Gal(b1-4)Glc
Summary of the method: as §1

[12] = target: Fuc(a1-2)[GalNAc(a1-3)]Gal(b1-3)GlcNAc
Summary of the method: as §1

[13] = target: Fuc(a1-2)[GalNAc(a1-3)]Gal(b1-3)GlcNAc(b1-2)Man(a1-3)[Fuc(a1-2)[GalNAc(a1-3)]Gal(b1-3)GlcNAc(b1-2)Man(a1-6)]Man(b1-4)GlcNAc(b1-4)GlcNAc
Summary of the method: as §1

[14] = target: Fuc(a1-2)[GalNAc(a1-3)]Gal(b1-3)GlcNAc(b1-2)Man(a1-3)[Fuc(a1-2)[GalNAc(a1-3)]Gal(b1-3)GlcNAc(b1-2)Man(a1-6)]Man(b1-4)GlcNAc(b1-4)[Fuc(a1-6)]GlcNAc
Summary of the method: as §1

[15] = target: Fuc(a1-2)[GalNAc(a1-3)]Gal(b1-3)GlcNAc(b1-3)GalNAc
Summary of the method: as §1

[16] = target: Fuc(a1-2)[GalNAc(a1-3)]Gal(b1-3)GlcNAc(b1-6)GalNAc
Summary of the method: as §1

[17] = target: Fuc(a1-2)[GalNAc(a1-3)]Gal(b1-4)Glc
Summary of the method: as §1

[18] = target: Fuc(a1-2)[GalNAc(a1-3)]Gal(b1-4)GlcNAc
Summary of the method: as §1

[19] = target: Fuc(a1-2)[GalNAc(a1-3)]Gal(b1-4)GlcNAc(b1-2)Man
Summary of the method: as §1

[20] = target: Fuc(a1-2)[GalNAc(a1-3)]Gal(b1-4)GlcNAc(b1-2)Man(a1-3)[Fuc(a1-2)[GalNAc(a1-3)]Gal(b1-4)GlcNAc(b1-2)Man(a1-6)]Man(b1-4)GlcNAc(b1-4)GlcNAc
Summary of the method: as §1

[21] = target: Fuc(a1-2)[GalNAc(a1-3)]Gal(b1-4)GlcNAc(b1-2)Man(a1-3)[Fuc(a1-2)[GalNAc(a1-3)]Gal(b1-4)GlcNAc(b1-2)Man(a1-6)]Man(b1-4)GlcNAc(b1-4)[Fuc(a1-6)]GlcNAc
Summary of the method: as §1

[22] = target: Fuc(a1-2)[GalNAc(a1-3)]Gal(b1-4)GlcNAc(b1-3)Gal(b1-4)GlcNAc
Summary of the method: as §1

[23] = target: Fuc(a1-2)[GalNAc(a1-3)]Gal(b1-4)GlcNAc(b1-3)Gal(b1-4)GlcNAc(b1-3)Gal(b1-4)GlcNAc
Summary of the method: as §1

[24] = target: Fuc(a1-2)[GalNAc(a1-3)]Gal(b1-4)GlcNAc(b1-3)GalNAc
Summary of the method: as §1

[25] = target: Fuc(a1-2)[GalNAc(a1-3)]Gal(b1-4)GlcNAc(b1-3)[Fuc(a1-2)[GalNAc(a1-3)]Gal(b1-4)GlcNAc(b1-6)]GalNAc
Summary of the method: as §1

[26] = target: Fuc(a1-2)[GalNAc(a1-3)]Gal(b1-4)GlcNAc(b1-6)GalNAc
Summary of the method: as §1

[27] = target: Fuc(a1-2)[GalNAc(a1-3)]Gal(b1-4)[Fuc(a1-3)]GlcNAc
Summary of the method: as §1

[28] = target: Fuc(a1-2)[GalNAc(a1-3)]Gal(b1-4)[Fuc(a1-3)]GlcNAc(b1-3)GalNAc
Summary of the method: as §1

[29] = target: Fuc(a1-2)[GalNAc(a1-4)]Gal(b1-4)GlcNAc
Summary of the method: as §1

[30] = target: Fuc(a1-2)[GalNAc(b1-3)]Gal
Summary of the method: as §1

B1: PX14343B-bfa-546-20-546 (Bacteroides fragilis) (protein)
chain: CDLERYPLTDLSEETFWNSESNAELALTSLYRGSLTDGVEYNPSDWWSYHGMIMMEHLSDNAFDRRGENNPFFKISSGNLTADNAFIKRYWETSYKRIGYCNRFLVGIQNSSESEKKTRMIAEARFLRATQYFYLASYFKNVPLVENVLTGEEANNVTKTSQADILKWCVTEFTAAAADLPRFSAIPAGEAGRACKQAALAFLGRTCMLQKDWKSGAKAFHDIMELGDNAINANYQELFYPSTGTSNKENIFYIQYLENYLGTGLPQHALSAKDGGWSLVNPAADLYESYEFKDGTPFSYDDPRYDPSNLGKDRDPRLDYTIYYNGAIFMGTEYKMSPDYSAAKKEKLDYTSEASRTGFMMRKYFEESTPINDVQSANGLTPVIRYAEVLLGYLECLVEDNQTITQGILDETINAVRGRASVNMPPVTEVTPAKLREIVRHERRIELAMEGIRYWDIMRWGIAHEVLSQKIWGAPYPGSTQYATTTKEVDPTGNYRWYVGKRAFRNPTDYTWPIPQSEQNINPNLRD
B1 was tested, and the “glycan array binding signal (z-score)” value [1] was -0.106, the “glycan array binding signal (z-score)” value [2] was -0.12 and the “glycan array binding signal (z-score)” value [3] was -0.127. For the same binder, the “glycan array binding signal (z-score)” value [4] was -0.122, the “glycan array binding signal (z-score)” value [5] was -0.124 and the “glycan array binding signal (z-score)” value [6] was -0.129. The “glycan array binding signal (z-score)” value [7] was -0.134, the “glycan array binding signal (z-score)” value [8] was -0.126 and the “glycan array binding signal (z-score)” value [9] was -0.121. The “glycan array binding signal (z-score)” value [10] was -0.113, the “glycan array binding signal (z-score)” value [11] was -0.132 and the “glycan array binding signal (z-score)” value [12] was -0.123. The “glycan array binding signal (z-score)” value [13] was -0.129, the “glycan array binding signal (z-score)” value [14] was -0.118 and the “glycan array binding signal (z-score)” value [15] was -0.127. For the same binder, the “glycan array binding signal (z-score)” value [16] was -0.126, the “glycan array binding signal (z-score)” value [17] was -0.123 and the “glycan array binding signal (z-score)” value [18] was -0.127. The “glycan array binding signal (z-score)” value [19] was -0.124, the “glycan array binding signal (z-score)” value [20] was -0.117 and the “glycan array binding signal (z-score)” value [21] was -0.124. For the same binder, the “glycan array binding signal (z-score)” value [22] was -0.126, the “glycan array binding signal (z-score)” value [23] was -0.121 and the “glycan array binding signal (z-score)” value [24] was -0.12. For the same binder, the “glycan array binding signal (z-score)” value [25] was -0.117, the “glycan array binding signal (z-score)” value [26] was -0.126 and the “glycan array binding signal (z-score)” value [27] was -0.098. The “glycan array binding signal (z-score)” value [28] was -0.116, the “glycan array binding signal (z-score)” value [29] was -0.115 and the “glycan array binding signal (z-score)” value [30] was -0.129.

Source: the supplement of paper PMC8728848
